Reference: PMC4336329 (PLoS ONE, 2015)
Hit rate of the full screen: of about 310,000 compounds, about 14,000 (4.5%) showed an effect of 50% or more. Effects have a minus sign here. This is one part of the list.

target: human ether-à-go-go-related gene (hERG) potassium channel (human, UniProt Q12809); test: primary screen, population patch clamp on CHO cells stably expressing hERG
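Note: peak tail current of the secondary pulse compared with the same well before compound.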

human ether-à-go-go-related gene (hERG) potassium channel, sequence (Q12809 whole entry, looked up): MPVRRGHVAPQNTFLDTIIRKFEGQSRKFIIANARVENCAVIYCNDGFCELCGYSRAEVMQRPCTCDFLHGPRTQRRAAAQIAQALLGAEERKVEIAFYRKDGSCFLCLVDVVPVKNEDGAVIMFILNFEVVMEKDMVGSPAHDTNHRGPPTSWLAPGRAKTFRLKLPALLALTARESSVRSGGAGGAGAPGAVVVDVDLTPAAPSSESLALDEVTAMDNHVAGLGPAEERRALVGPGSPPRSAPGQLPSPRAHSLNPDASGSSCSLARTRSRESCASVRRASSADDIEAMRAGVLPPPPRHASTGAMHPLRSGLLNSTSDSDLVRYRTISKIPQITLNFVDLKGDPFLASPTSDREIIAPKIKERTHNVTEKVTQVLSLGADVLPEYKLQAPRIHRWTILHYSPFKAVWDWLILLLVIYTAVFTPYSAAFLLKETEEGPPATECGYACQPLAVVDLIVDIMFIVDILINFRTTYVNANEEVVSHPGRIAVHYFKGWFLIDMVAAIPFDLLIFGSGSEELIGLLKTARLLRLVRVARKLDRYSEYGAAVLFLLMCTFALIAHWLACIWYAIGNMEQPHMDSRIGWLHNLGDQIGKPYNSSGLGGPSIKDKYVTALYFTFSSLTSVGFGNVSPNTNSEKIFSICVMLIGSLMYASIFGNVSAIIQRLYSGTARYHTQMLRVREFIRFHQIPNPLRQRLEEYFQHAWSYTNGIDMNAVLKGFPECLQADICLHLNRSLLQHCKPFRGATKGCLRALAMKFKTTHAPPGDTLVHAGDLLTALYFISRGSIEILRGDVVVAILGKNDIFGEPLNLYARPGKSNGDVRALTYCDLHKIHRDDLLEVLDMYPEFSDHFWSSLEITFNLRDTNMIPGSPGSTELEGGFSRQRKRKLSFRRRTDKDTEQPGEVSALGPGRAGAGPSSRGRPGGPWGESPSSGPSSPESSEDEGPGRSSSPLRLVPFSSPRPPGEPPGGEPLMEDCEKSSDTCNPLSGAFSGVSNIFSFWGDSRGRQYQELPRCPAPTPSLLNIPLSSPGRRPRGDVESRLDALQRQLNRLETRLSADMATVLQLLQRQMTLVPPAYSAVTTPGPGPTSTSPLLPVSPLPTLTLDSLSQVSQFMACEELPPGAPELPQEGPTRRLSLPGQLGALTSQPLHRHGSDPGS

Point of comparison: `Cc1c(NC(=O)CN2CCN(c3ccc(O)cc3)CC2)c(=O)n(-c2ccccc2)n1C`, “hERG current change (%, negative = inhibition) at 10uM” value 21%. Against it:
- Oc1ccccc1C1=Nc2ncnn2C(c2ccc(F)cc2)C1 (stereo not drawn) — lower, -80.8%
- Cc1ccc(C(=O)C(OC(=O)c2cnccn2)c2ccccc2)cc1C (stereo not drawn) — lower, -27.4%
- O=S(=O)(Nc1cc(Cl)ccc1N1CCOCC1)c1ccccc1Cl — lower, -10.1%
- CCOc1ccc(Oc2ccccc2NC(=O)CCNC(C)=O)cc1 — lower, 13.8%
- C=C(C)C(=O)OCCCCCCOc1ccc(C(=O)O)cc1 — lower, 15.1%
- CC(C)C[C@H](NC(=O)c1[nH]cnc1C(=O)N[C@H](C)c1ccccc1)C(=O)OCc1ccccc1 — higher, 29.9%
- CCC(CC)C(=O)Nc1cccc(C(=O)N2CCOCC2)c1 — lower, 2.17%
- O=c1c2c(nc3cc(-c4ccc(F)cc4)[nH]n13)CCCC2 — lower, -10.2%
- CCOc1ccccc1-c1nnc(SCC(=O)NC2(C#N)CCCC2)o1 — lower, -19.2%
- COc1ccc(/C(C)=N/NC(=O)c2nnn(-c3nonc3N)c2-c2cccs2)cc1 — lower, 12.2%
- N=c1c(S(=O)(=O)c2ccc(Br)cc2)cc2c(=O)n3ccccc3nc2n1C1CCCC1 — lower, 9.15%
- CCN1CCCC(OC(=O)Nc2ccccc2)C1 (stereo not drawn) — lower, 2.47%
- COc1ccc(N2CCN(C(=O)CCS(=O)(=O)c3cccc4nsnc34)CC2)cc1 — lower, -23.9%
- O=C(NN=C1CCCC1)c1ccccc1OCc1ccc(Cl)cc1 — lower, -3.06%
- Cc1ccc(S(=O)(=O)NNC(=O)C(O)(c2ccccc2C)c2ccccc2C)cc1 — lower, -14.7%
- CCc1nnc(NC(=O)CSc2nc3c(C)cccc3[nH]2)s1 — lower, 0.952%
- CCOc1ccccc1N(C(=O)c1snc(C(N)=O)c1N)C(C(=O)NC1CCCC1)c1cccs1 (stereo not drawn) — lower, -17.5%
- O=C(COc1ccc(Cl)cc1)N1CCN(c2cccc(C(F)(F)F)c2)CC1 — lower, -49.1%
- C/C(Cl)=C\Cn1c(O)c(N=O)c2ccccc21 — lower, -22%
- COc1cc(/C=N/Nc2ccc(F)cc2F)cc(OC)c1O — lower, -2.17%
- COc1ccccc1C(=O)C1CCCN(C(=O)c2cccnc2SC)C1 (stereo not drawn) — lower, 15.2%
- O=S(=O)(c1cccc2cccnc12)N1CCN(Cc2ccc3c(c2)OCO3)CC1 — lower, -7.81%
- CCc1cc(=O)oc2c(C)c(OC(C)C(=O)NCCCN3CCOCC3)ccc12 (stereo not drawn) — lower, 3.21%
- CC(Oc1ccccc1)C(=O)Nc1nnc(C2CCCCC2)s1 (stereo not drawn) — lower, -41.7%
- COc1cccc(/C=N/NC(=O)C[n+]2ccccc2)c1O.[Cl-] — lower, 6.33%
- CCCCCCOC(=O)CCc1c(C)nc(N)[nH]c1=O — lower, 2.82%
- Cc1cccc(CC(=O)N2CCOCC2)c1 — lower, 16.6%
- COc1ccccc1-n1cn[nH]c1=S — lower, 6.55%
- CCc1ccc2c(COn3nnc4ccc(S(=O)(=O)N(C)C)cc43)cc(=O)oc2c1 — lower, -30.2%
- CC1(C)Cc2nc3sc4c(=O)[nH]cnc4c3cc2CS1 — lower, 8.2%
- Cc1nnc(SCC(=O)N2CCN(S(=O)(=O)c3ccccc3)CC2)[nH]c1=O — lower, -5.2%
- CNC(=O)CCc1ccc(OC)cc1 — lower, 13.8%
- O=C1COc2ccc3ccccc3c21 — lower, -4.35%
- O=C(CSCc1ccco1)N1CCc2ccccc21 — lower, -6%
- O=C(c1cc(S(=O)(=O)N2CCCCC2)ccc1F)N1CCCCC1 — lower, -10.3%
- COc1ccc(-c2noc(C3CCCN(C(=O)c4ccc(C)cc4)C3)n2)cc1 (stereo not drawn) — lower, -15.1%
- COc1ccc(NC(=O)COC(=O)CNS(=O)(=O)c2ccc(F)c(F)c2F)cc1OC — higher, 21.3%
- CC1(C)CC(NC(=O)CC2CCCCC2)CC(C)(C)N1 — lower, 12.1%
- COC(=O)c1ccccc1NC(=O)N1CCN(c2ccc(F)cc2)CC1 — lower, -32.7%
- COc1cccc(C2CC(c3ccccc3Cl)n3nc(N)nc3N2)c1 (stereo not drawn) — lower, -9.01%
- COc1cc(/C=N/NC(=O)c2cnccn2)ccc1O — lower, -10.8%
- Cc1ccsc1C(=O)Nc1n[nH]c(C(F)(F)F)n1 — lower, 4.4%
- Cc1ccc(C(=O)OCC(=O)Nc2cc(C(C)(C)C)no2)c(C)c1 — lower, 6.04%
- c1cncc(-c2cccnc2)c1 — higher, 21.8%
- C=CCn1c(N)c(S(=O)(=O)c2cccs2)c2nc3ccccc3nc21 — lower, -1.18%
- Cc1ccc(/C=C/C(=O)Nc2ccc(S(=O)(=O)Nc3ncccn3)cc2)cc1 — higher, 47.5%
- Cc1c(O)ccc(C(=O)CN2CCN(c3ccc(F)cc3)CC2)c1O — lower, 18.8%
- CCOC(=O)Cc1c(C)nc2c(-c3ccccc3)c(C)nn2c1C — lower, -22.6%
- COc1cc(C=O)cc(Cl)c1OC(=O)N1CCOCC1 — higher, 25.3%
- COc1cc(OC)c(S(=O)(=O)Nc2ccccc2N2CCOCC2)cc1NC(C)=O — lower, 4.13%
- CN(Cc1ccccc1)c1ncnc2c1cnn2-c1ccccc1 — lower, -4.87%
- C=CC(=O)OCCOCCOCCOCCOC(=O)C=C — lower, 15.9%
- CCOc1ccccc1Oc1coc2cc(O)ccc2c1=O — lower, -11.4%
- Cc1ccccc1-c1cc(C(=O)NCC2CC2)n(CC2CC(c3cccnc3)=NO2)n1 (stereo not drawn) — lower, -20%
- CC(=O)Nc1ccc(N2C(=O)CSC2c2ccc(F)cc2)cc1 (stereo not drawn) — lower, 3.08%
- CC(C)(C)c1[nH]c2ccccc2c1/C=N/O — lower, 11.4%
- CC(NC(=O)c1cc(=O)[nH]c2ccccc12)c1ccccc1 (stereo not drawn) — lower, 8.8%
- COC(=O)COc1ccsc1C(=O)OC — lower, -6.53%
- CCCCOC(=O)Cn1c(-c2ccccc2)nc2ccccc2c1=O — lower, 14.3%
- Cc1onc(NC(=O)c2ccc([N+](=O)[O-])o2)c1Br — lower, 4.01%
- O=C1N/C(=C\c2ccc(O)cc2)C(=O)c2ccccc21 — lower, -1.53%
- CCN(CC)CCNc1cc(C)nc2c1C(=O)C(=O)C=C2N1CCCCC1 — lower, -0.139%
- Cc1occc1C(=O)N1CCN(c2ncccn2)CC1 — lower, 2.54%
- CCN(c1ccc(C)cc1)S(=O)(=O)c1nnc(NC(=O)c2ccco2)s1 — lower, 3.01%
- O=C(c1ccc2c(c1)N(Cc1ccccc1)CCS2)N1CCCCC1 — lower, -32.9%
- COc1cccc(OCc2cc(C(=O)N(C)CCC3CCCCO3)no2)c1 (stereo not drawn) — lower, -2.94%
- Cc1cc(S(=O)(=O)N2CCCCCC2)c(Cl)cc1Cl — lower, 7.69%
- CC(/C=N/Nc1nnc2c(n1)[nH]c1ccccc12)=C\c1ccco1 — lower, 2.74%
- O=C1CCN(S(=O)(=O)c2ccc(Cl)cc2)N1 — lower, 9.88%
- Cc1ccccc1CSCCC(=O)NCCC1=CCCCC1 — lower, 5.34%
- CC(=O)N(Cc1ccco1)c1nc(C(=O)Nc2ccc(Cl)cc2)c(C)s1 — lower, 4.58%
- Cc1ccc(NC(=O)CCNS(=O)(=O)c2ccc3[nH]c(=O)oc3c2)cc1C — lower, 9.43%
- CC(=O)N1c2ccc(S(=O)(=O)NCCC(=O)NCc3ccc(Cl)cc3)cc2CC1C (stereo not drawn) — lower, -10.2%
- COc1ccc(OC)c(C(=O)Nc2c(O)ccc3ccccc23)c1 — lower, 9.35%
- Cc1ccc(NS(=O)(=O)c2ccc3c(c2)CCN3C(=O)CCC(=O)O)cc1Cl — lower, 17.4%
- Cc1cc(=O)oc2cc(NC(=O)CCOc3ccccc3)ccc12 — lower, 8.94%
- CC(=O)Nc1ccc(S(=O)(=O)Nc2nc3ccccc3nc2Sc2nncn2C)cc1 — lower, 2.53%
- CC(=O)N1CCN(S(=O)(=O)c2cccc(C(=O)NNC(=O)COc3ccc(Cl)cc3C)c2)CC1 — lower, 3.63%
- CCOC(=O)c1cc(S(=O)(=O)NCCc2ccccc2)cn1C — lower, 2.98%
- Cc1ccccc1C(=O)Nc1ccc(S(=O)(=O)N2CCCC2)cc1 — lower, 3.69%
- CC(=O)c1sc(NC(=O)CCOc2ccccc2)nc1C — lower, 5.9%
- Cl.O=C(CSc1nc2ccc(Cl)cc2[nH]1)c1cccs1 — lower, 5%
- O=C(OCCn1cncn1)c1cc2ccccc2oc1=O — lower, 6.78%
- Cn1c(-c2sc(=S)n(-c3ccccc3)c2N)nc2ccccc21 — lower, -9.51%
- O=C(CN(c1ccccc1)S(=O)(=O)c1ccccc1)Nc1ccccc1C(=O)NCc1ccco1 — lower, 3.93%
- CCn1c(SCC(=O)N2CCOCC2)nc2ccccc21 — lower, 8.56%
- CC(C)c1ncc(C(O)c2ccccc2)n1C (stereo not drawn) — lower, 14.1%
- COc1ccc(C(C)=O)cc1CSc1nnc(Nc2c(C)cccc2C)s1 — lower, -45.5%
- O=C(O)c1ccc(-c2noc(-c3cccc(C(F)(F)F)c3)n2)cc1 — higher, 23%
- CCCCc1nnc(NC(=O)C2CCCO2)s1 (stereo not drawn) — lower, -3.68%
- Cc1ccc(C(=O)OCC(=O)NC2CCCCC2)o1 — lower, 3.03%
- CC(C)OCCCNC(=S)N1CCC(C(=O)c2ccc3c(c2)OCCO3)CC1 — lower, -22.9%
